Screen size: about 310,000 compounds; about 14,000 (4.5%) showed an effect of 50% or more. The effect is printed as a negative number. The list shows a part of the results.
What follows are molecules tested against human ether-à-go-go-related gene (hERG) potassium channel (human, UniProt Q12809) (assay: primary screen, population patch clamp on CHO cells stably expressing hERG).
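Note: peak tail current of the secondary pulse compared with the same well before compound.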

Sequence of human ether-à-go-go-related gene (hERG) potassium channel (Q12809 whole entry, looked up): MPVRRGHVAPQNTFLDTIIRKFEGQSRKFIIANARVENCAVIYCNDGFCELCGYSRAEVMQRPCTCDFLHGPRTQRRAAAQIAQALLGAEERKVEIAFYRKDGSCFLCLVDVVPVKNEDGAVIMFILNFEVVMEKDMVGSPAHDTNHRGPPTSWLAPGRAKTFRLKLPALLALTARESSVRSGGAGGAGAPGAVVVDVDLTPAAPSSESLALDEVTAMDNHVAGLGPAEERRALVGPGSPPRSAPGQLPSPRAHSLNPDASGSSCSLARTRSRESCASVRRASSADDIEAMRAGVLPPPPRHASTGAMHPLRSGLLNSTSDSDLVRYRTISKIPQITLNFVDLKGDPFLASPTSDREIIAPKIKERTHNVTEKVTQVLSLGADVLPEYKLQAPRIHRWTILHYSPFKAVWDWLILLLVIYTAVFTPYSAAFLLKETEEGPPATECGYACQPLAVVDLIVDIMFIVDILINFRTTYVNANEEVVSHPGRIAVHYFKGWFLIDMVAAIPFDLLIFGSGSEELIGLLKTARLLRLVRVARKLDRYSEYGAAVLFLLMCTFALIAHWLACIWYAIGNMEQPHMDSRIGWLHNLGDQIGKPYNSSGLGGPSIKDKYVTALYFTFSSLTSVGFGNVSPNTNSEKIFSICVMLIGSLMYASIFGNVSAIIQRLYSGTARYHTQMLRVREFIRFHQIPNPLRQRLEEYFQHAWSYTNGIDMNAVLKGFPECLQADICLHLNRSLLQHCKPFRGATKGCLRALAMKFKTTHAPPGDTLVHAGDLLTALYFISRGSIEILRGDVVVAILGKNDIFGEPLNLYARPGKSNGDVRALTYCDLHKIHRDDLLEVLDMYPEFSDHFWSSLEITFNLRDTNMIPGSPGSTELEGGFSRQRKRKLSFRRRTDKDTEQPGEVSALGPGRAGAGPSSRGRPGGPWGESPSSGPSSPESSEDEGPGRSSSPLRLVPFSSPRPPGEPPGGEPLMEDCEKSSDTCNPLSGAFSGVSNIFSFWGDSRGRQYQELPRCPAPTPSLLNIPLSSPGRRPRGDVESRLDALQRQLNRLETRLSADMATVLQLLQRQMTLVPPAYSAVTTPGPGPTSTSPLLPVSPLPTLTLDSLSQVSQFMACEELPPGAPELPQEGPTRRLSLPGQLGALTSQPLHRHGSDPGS

Compound	hERG current change (%, negative = inhibition) at 10uM [%]
Cc1nn(-c2ccccc2)cc1C(=S)Nc1ccccc1	3.16
CC(NC(=O)OCc1ccccc1)c1ccccc1 (stereo not drawn)	-22.9
O=C(NCCCn1ccnc1)c1nc(Cn2cc([N+](=O)[O-])cn2)no1	-0.453
NC(=O)Nn1c(CCC(=O)O)ccc1-c1ccc(F)cc1	2.6
Cc1ccc(NC(=O)C2C(c3ccccc3)C2(Cl)Cl)c(C)c1 (stereo not drawn)	1.9
CC(=O)c1c(C)oc(C)c1CSCc1ccc(C(=O)O)o1	0.541
C=CCSC1=N/C(=C\c2ccsc2)C(=O)S1	3.81
COCCNC(=O)c1c(N)n(Cc2ccco2)c2nc3ccccc3nc12	-6.12
CCN(C(=O)CN1C(=O)NC(c2ccccc2)(c2ccccc2)C1=O)c1ccccc1	0.647
Cc1ccc(S(=O)(=O)N2CCCCC2)cc1NC(=O)Cn1cc(C(F)(F)F)ccc1=O	-3.88
CC(=O)Nc1ccc(S(=O)(=O)Nc2cccc(NC(=O)c3ccco3)c2)cc1	24.4
Cc1ccc(-c2cc3c(N=O)c4ccccc4c-3n[nH]2)cc1	18.1
O=c1c2cc(N3CCOCC3)ccc2[nH]c(=S)n1CCCN1CCCCC1	-21.6
COc1cccc(N2CCN(C(=O)C3CCN(S(=O)(=O)c4ccc5c(c4)oc(=O)n5C)CC3)CC2)c1	-7.61
O=C(CSc1nnc(CNc2ccc(F)cc2)o1)N1c2ccccc2Sc2ccccc21	11
Cc1nn(C)c(C)c1NS(=O)(=O)c1ccc(OC(F)(F)F)cc1	13.2
O=C(CN1C(=O)c2ccccc2C1=O)N1CCOCC1	4.68
Fc1cccc(Cl)c1-c1nnc2ccc(N3CCOCC3)nn12	-6.07
CC(=C\C(=O)O)/C(=C/c1ccccc1)C(=O)O	15.6

Compound	hERG current change (%, negative = inhibition) at 10uM [%]
CSCCC(NC(=O)c1ccccc1)C(=O)Nc1ccc(C)cc1 (stereo not drawn)	4.39
CN1CCN(CCCNC(=O)CCc2nnc3n(Cc4ccccc4Cl)c(=O)c4ccccc4n23)CC1	5.29
Cc1[nH]n(-c2ccccc2)c(=O)c1N=Nc1cccc(C(=O)O)c1	23.1
COc1cccc(-n2ccnc2SCC(=O)N2CCc3ccccc32)c1	-2.28
O=C(NC1CCCCC1)c1ccc(-n2cnnn2)cc1	-1.57
C/C(=N\Nc1cccc2ccccc12)c1c(O)n(Cc2ccccc2)c(=O)[nH]c1=O	19.9
Cc1ccc(OCC(O)CNS(=O)(=O)c2ccccc2C(=O)O)cc1 (stereo not drawn)	-2.72
O=C1CN(C(=O)COC(=O)C23CC4CC(CC(O)(C4)C2)C3)c2ccccc2N1	2.04
Cl.O=C(CN1CCOCC1)n1c2c(c3ccccc31)CCCC2	-6.9
COc1ccc(C)cc1S(=O)(=O)N(CC(=O)O)c1ccccc1	10.6
O=C(COC(=O)CCS(=O)(=O)c1ccccc1)Nc1ccccc1	-7.09
O=C(c1ccco1)n1nc(-c2ccccc2)nc1SCc1ccccc1	3.93
O=C(CN1CCCCC1)NCC(=O)Nc1ccc(F)c(F)c1F	7.49
O=C(CN1CCN(C/C=C/c2ccccc2)CC1)NC(=O)NC1CCCCC1	-74.8
C=C1CCC2[C@](C)(CO)[C@H](O)CC[C@@]2(C)[C@@H]1C/C=C1\C(=O)OC[C@H]1O (stereo partly drawn)	18.9
CCC(C)[C@H](NC(=O)N1CCCCCC1)C(=O)OC (stereo partly drawn)	5.25
CCc1cc(C(=O)NCC(c2ccco2)N2CCCCC2)sc1C (stereo not drawn)	-18.5
Cc1cc(=O)c2ccccc2[nH]1	-5.12
C=CCn1c(SCC(=O)NCc2ccco2)nc2ccccc2c1=O	-50.3

Compound	hERG current change (%, negative = inhibition) at 10uM [%]
COc1ccc(C)cc1NCc1cc(=O)oc2cc(-c3ccccc3)c(O)cc12	13.1
Cc1cc(C)cc(NC(=O)CCc2nc3ccccc3[nH]2)c1	7.15
CC(=O)Nc1ccc(NS(=O)(=O)c2ccc3c(c2)n(C)c(=O)n3C)cc1	1.94
CCOC(=O)c1ccc(NC(=S)NCc2ccco2)cc1	-11.1
CCCCCCSc1cccc(-c2nc3cc(C)ccn3c2NCc2ccccc2)c1.O=C(O)C(F)(F)F	11.1
O=C(NCCc1ccccc1)c1c(O)c2cccc3c2n(c1=O)CC3	1.79
COc1cccc(-c2c(C(=O)N/N=C/c3ccncc3)nnn2-c2nonc2N)c1	-7.69
Cc1c(N2C(=O)C(C)SC23C(=O)Nc2ccccc23)c(=O)n(-c2ccccc2)n1C (stereo not drawn)	17
Cc1cccc(Cn2c(O)c(N=NC(=S)Nc3ccccc3F)c3ccccc32)c1	16.2
Cn1nnc2c[n+](CC(=O)c3ccc4ccccc4c3)cc(Br)c21.[Br-]	-41.9
CC(=O)Oc1c(C)c2c3c(c1OC(C)=O)[C@@H](C)CC[C@@H]3[C@@H](C)C[C@H]2C=C(C)C	-20.8
CC(C)c1ccc(/C=C/C(=O)NC(=S)Nc2ccc(CN3CCOCC3)cc2)cc1	22.6
CCOC(=O)C1CCN(Cc2cccc(OC)c2)CC1	-1.39
C=CCn1c(SCC(=O)NCC2CCCO2)nc2c([nH]c3ccccc32)c1=O (stereo not drawn)	6.25
COc1ccc(C2NC(=S)NC(C)=C2C(=O)N2CCOCC2)cc1 (stereo not drawn)	6.23
Cl.Cn1c(=N)n(CC(O)c2cccs2)c2ccccc21 (stereo not drawn)	-39.9
CCSc1ncc(/C=N/Nc2ccccc2)n1C	-4.06
C/C(CC(=O)NCCCN1CCOCC1)=N\NC(=O)COc1ccc(Cl)cc1	5.78
CCN(CC(=O)Nc1ccc(OC)cc1)C(=O)c1ccccc1Sc1ccccc1C#N	1.4

Source: PMC4336329 (PLoS ONE, 2015)
